The campaign covered roughly 48,000 compounds. About 120 (0.25%) were called active. Not shown: some 4% with an inconclusive outcome. Calls follow the shape of the dose curve; as a rule, active = well fitted activation curve with a large enough effect; inconclusive = small, poorly fitted or top-dose-only effect, or another doubt; inactive = no such curve, though single readings can be large or run the other way. This is a selection; strong and weak results do not stand in their true shares. Where no call is shown, the source filed none.
Assay: Primary qHTS for Identification of Small Molecule Activators of Huntingtin-Antisense Promoter Activity; also: nearly all actives have a fitted effect of over 55% in size
Settings: HEK293 HTT-AS promoter firefly luciferase reporter, 24 h; activity change, positive = activation: at 57.5 µM (top of the series), percent change from vehicle, -100% = no light
How it was run: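 HEK293 luciferase promoter-reporter cells (2,500/well) plated 24 h, then compounds added at up to 57.5 uM final for 24 h at 37 °C. Firefly luminescence by Dual-Glo, normalized to vehicle (0%) and zero RLU (-100%).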
Potency is read from the fitted curve at half-maximal effect.

SMILES | activity change, positive = activation | Potency
Cc1ccc(C(=O)Nc2ccccc2)cc1S(=O)(=O)Nc1ccc(Br)cc1 | inactive: -36.5% | 
COc1ccc2c(c1)cc1c(=O)n(CC(=O)NC(C)C)nc(C)n12 | -3.18% | 
COc1ccc(S(=O)(=O)Nc2ccc(-c3ccc(N4CCCC4)nn3)cc2)cc1F | 2.61% | 
COc1ccc(NC(=O)CC2C(=O)N(c3cccc(OC)c3)C(=O)N2Cc2cccnc2)cc1 (centres undefined) | -1.9% | 
Cn1c(=O)c2c(nc(SCC(=O)Nc3ccc(F)cc3)n2Cc2ccc(Cl)cc2)n(C)c1=O | -15.2% | 
O=C1c2ccccc2C(=O)C1(c1ccccc1)N1CCN(c2cccc(C(F)(F)F)c2)CC1 | inactive: -21.8% | 
COc1ccc(Cl)cc1NC(=O)c1cc2ccccn2n1 | 44.1% | 
CCCC(=O)Nc1cccc(-c2nc3ncccc3o2)c1 | 26.9% | 
O=C(CCCCn1c(=O)c2ccccc2n(CC(=O)Nc2ccc(F)cc2F)c1=O)NCc1ccccc1Cl | inactive: -5.2% | 
Clc1ccc(CCNC(c2cccc(Cl)c2)c2nnc(-c3ccccc3)o2)cc1 (centres undefined) | -9.79% | 
Cc1cc2c(cc1C)-n1c(-c3ccccc3)c3c(=O)n(C)c(=O)n(C)c3c1C(c1ccco1)N2 (centres undefined) | -7.2% | 
O=C(O)CCc1ccc(-c2ccccc2)n1-c1cccc(Br)c1 | -17.4% | 
CN(Cc1ccccc1)C(=O)c1cc2c(s1)-c1ccc(Cl)cc1SC2 | inactive: 11.4% | 
Cc1ccc(N(C(=O)c2cccc(C)c2)S(=O)(=O)c2ccc(Cl)cc2)cc1 | -37.5% | 
CCOC(=O)C1CCN(C(=O)c2ccc3c(=O)n4nc(Nc5ccccc5)sc4nc3c2)CC1 | inactive: -25.6% | 
CCOC(=O)c1ccc(NC(=O)C2CCN(S(=O)(=O)Cc3ccccc3)CC2)cc1 | 7.91% | 
Cc1ccccc1NC(=O)c1c(C)oc2ccc(O)c(CN3CCCC(C)C3)c12 (centres undefined) | -28.3% | 
COc1cc2c(cc1OC)C(c1ccc(F)cc1)N(c1ccccc1)C(=O)C2 (centres undefined) | -22.9% | 
Cc1ccc2oc(-c3cc(NC(=O)Cc4ccccc4)ccc3Cl)nc2c1 | -21.3% | 
Cc1ccc(NC(=O)CCn2nc(-c3ccccc3)c3ccccc3c2=O)c(C)c1 | -16.8% | 

SMILES | activity change, positive = activation | Potency
CCc1ccc(C2=C(C)C(N3CCC(C(=O)Nc4ccc(F)cc4)CC3)=NS2(=O)=O)cc1 | inactive: -26.9% | 
CCOc1ccc(S(=O)(=O)N2CCC(N3CCN(Cc4ccc(C)cc4)C(=O)C3=O)CC2)cc1 | 2.76% | 
Cc1oc2ccc(O)c(CN3CCCC3)c2c1C(=O)Nc1cccc(Cl)c1C | -0.713% | 
CCc1ccc(S(=O)(=O)Nc2ccc(-c3ccc(N4CCCCCC4)nn3)cc2)cc1 | 11.7% | 
CCOC(=O)Cn1cccc1-c1nc(-c2ccc(OC)cc2)c(-c2ccc(OC)cc2)s1 | inactive: -5.68% | 
Cc1nc2ccn(Cc3cccs3)c(=O)c2cc1C(=O)NCc1ccccc1 | -21.9% | 
CN(C)c1ccc(CNC(=O)c2cc3ccccn3n2)cc1 | 44.8% | 
Cc1ccc(C(CC(=O)NCC2(c3ccccc3)CCCC2)c2ccccc2)c(O)c1 (centres undefined) | -68.9% | 
COc1ccc(C2C(=O)N(C3CCCCCC3)CC(=O)N2CCc2ccccc2)cc1 (centres undefined) | -10.1% | 
COc1ccc(NC(=O)c2cc(-c3ccc4c(c3)OCO4)on2)c(OC)c1 | 7.07% | 
COc1ccc(CNC(=O)CCc2c(C)nn(-c3ccc(N4CCCC4)nn3)c2C)c(OC)c1 | -0.998% | 
Cc1ccc(NC(=O)c2c(C)oc3ccc(O)c(CN4CCCCC4)c23)cc1 | -16.8% | 
CCc1cccc(C)c1NC(=O)C1CCN(S(=O)(=O)Cc2ccccc2)CC1 | -11% | 
CCCOc1ccc(NC(=O)CC2C(=O)N(c3ccc(C)cc3)C(=O)N2Cc2cccc(OC)c2)cc1 (centres undefined) | 1.64% | 
CC(C)Oc1ccc(CNC(=O)c2cnc3sc(N4CCCCC4)nn3c2=O)cc1 | 1.05% | 
COc1cc2c(-c3ccc(C)cc3)nc3c(c(C)nn3-c3ccccc3)c2cc1OC | 0.0315% | 
COc1cc(NC(=O)c2cc(-c3ccc(Cl)c(Cl)c3)on2)cc(OC)c1OC | 9.53% | 
COc1ccc(N2CCN(C(=O)C3CCN(S(=O)(=O)Cc4ccccc4)CC3)CC2)cc1 | -1.74% | 
COc1ccc(CN2COc3ccc4c(-c5ccc(OC)cc5)cc(=O)oc4c3C2)cc1 | -11.1% | 
CCOc1ccc(C2C(=O)N(C3CCCCCC3)CC(=O)N2CCc2ccccc2)cc1OC (centres undefined) | -22.6% | 

SMILES | activity change, positive = activation | Potency
CCC(CO)Nc1ncnc2c1cnn2-c1ccc(C)cc1 (centres undefined) | inactive: -45.7% | 
CC1CCN(C(=O)c2cc(-c3cccc(Cl)c3)on2)CC1 | 40% | 
Cc1ccc(CN2CCN(C3CCN(S(=O)(=O)c4ccc(C)cc4)CC3)C(=O)C2=O)cc1 | 0.164% | 
Cc1ccc(CNC(=O)CCc2c(C)nn(-c3ccc(N4CCCC4)nn3)c2C)cc1 | -6.37% | 
CCOC(=O)C1CCN(CCC(=O)Nc2ccccc2Cl)CC1 | -7.88% | 
Cc1ccc(C)c(N2CCN(C(=O)c3ccc4c(c3)c(C)c(C)n4C)CC2)c1 | inactive: -27.2% | 
Cc1cc(C)c(Cn2c3ccccc3c3cnn(CC(=O)N4CCCCC4)c(=O)c32)c(C)c1 | inactive: -24% | 
COc1ccc(N(C(=O)/C=C\C(=O)Nc2ccc(Cl)cc2)C(C(=O)NCc2ccco2)c2ccc(C)cc2)cc1 (centres undefined) | -39.8% | 
Cn1c(=O)c2c(-c3ccccc3)n3c(c2n(C)c1=O)C(c1ccccc1[N+](=O)[O-])Nc1ccccc1-3 (centres undefined) | -4.46% | 
Fc1ccc(NCc2cccn2-c2nnc(N3CCOCC3)s2)cc1 | inactive: 4.18% | 
CCOc1ccccc1NS(=O)(=O)c1ccc2c(c1)CC(C)N2C(=O)C1CCC1 (centres undefined) | -39.6% | 
CCCN1CCN(CCCNC(=O)c2c(C)nn(-c3ccc(F)cc3)c2-n2cccc2)CC1 | inactive: -0.235% | 
COC(=O)c1cc2oc3ccccc3c2n1CC(=O)Nc1ccc(C)cc1C | 7.94% | 
Cc1ccc(N2C(=O)N(Cc3cccc(Cl)c3)c3ccccc3S2(=O)=O)cc1 | inactive: -27.1% | 
CO[C@H]1C[C@@H]2CC[C@@H](C)[C@@](O)(O2)C(=O)C(=O)N2CCCC[C@@H]2C(=O)O[C@H]([C@H](C)C[C@@H]2CC[C@H](OP(C)(C)=O)[C@H](OC)C2)CC(=O)[C@H](C)C=C(C)[C@@H](O)[C@@H](OC)C(=O)[C@H](C)C[C@H](C)C=CC=CC=C1C | inactive: -11.9% | 
CCCOc1ccc(CNC(=O)c2cc3ccccn3n2)cc1 | 48.1% | 
COc1ccc(-c2cc(C(=O)Nc3cnn(Cc4ccc(F)cc4)c3)no2)cc1OC | 0.41% | 
COc1cc2c(cc1NC(=O)C(C)Oc1ccccc1)oc1ccccc12 (centres undefined) |  | active: 3.98 µM
CCOc1ccc(NC(=O)CC2C(=O)N(c3cccc(C)c3)C(=O)N2Cc2ccco2)cc1 (centres undefined) | 0.866% | 

Reference: PubChem BioAssay AID1508624 (National Center for Advancing Translational Sciences (NCATS), 2021)
